Laboratory results reported in the supplement of paper PMC11417369.
This is one part of the list.

test system: PF3D7_0420300 AP2 domain 1 (GST-tagged); assay: gcPBM binding intensity (ln(normalized median fluorescence intensity)); higher = stronger DNA binding
How it was run: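 Using an Agilent 4 × 180k array, primer-extended double-stranded 36-bp intergenic genomic probes and negative controls were exposed for 1 h to GST-fused P. falciparum DNA-binding domains expressed in E. coli. Binding was carried out in 1× PBS with 1% milk, 0.2 mg/ml BSA, 0.5% salmon testes DNA and 0.03% Triton X-100, and protein was detected with Alexa488 anti-GST antibody and a 488 nm scan. Binding intensity is the highest Masliner-normalised natural-log median intensity across replicate spots of either probe orientation.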

| Sequence | gcPBM binding intensity (ln) |
| --- | --- |
| TAAAGAGAGACATCAACACACATACGTATGTATAGA [CACACA_site4896] | 9.52 |
| ATTTACCTATATATTTGTACTTACATAATGCTACCT [XGTACX_site2693] | 9.63 |
| TAAAAAAAAATATATAAACACACATATTTATATACA [CACACA_site8469] | 9.36 |
| CCAATGTTTTCTTGTGTACACATCATTAAAGAAAAA [CACACA_site5300] | 9.02 |
| ATTCTATATGAAAAATGTACAAATAAAAATTCTAAG [XGTACX_site8900] | 9.09 |
| CATGAAAATATTATGTGTACTTAATGCACATTCAAA [XGTACX_site1952] | 9.07 |
| CACGCATACAGACACACACACACACCGATATATATA [CACACA_site8113] | 10.3 |
| ATGAATAAATAAGACACACACGAAAATAAGTAAAAA [CACACA_site4216] | 10.1 |
| TATTTTGATTATTCAGTGTATAAATATATATATATA [CACACA_negctrl_site545] | 9.17 |
| CATATATACGCATACACACACACACCCACACCCACA [CACACA_site1725] | 10.2 |
| TACAAATATATATGCACACACATATACATACAGATA [CACACA_site5238] | 9.77 |
| TGATGAAAATCTACATGAATGTTTTTATATCTATAT [GTGCAC_negctrl_site139] | 9.14 |
| TATTTATACCTATACACACACACACGGATATTTATA [CACACA_site7123] | 10.2 |
| GATAAAATCACTGGTGCATGTAGATATATAATATTA [TGCATGCA_site589] | 9.26 |
| AATTAACAAAAACACACACACACACCGACAAAAAAA [CACACA_site4444] | 10.3 |
| ATATGCTTATTGTAAAGTACATTATTATTTTTCCTA [XGTACX_site5479] | 9.33 |
| AAAAAAAAATTAAAATGTACACATAAAAAAAAAAAA [XGTACX_site794] | 9.35 |
| AAAAATAAATAAATATGTACATATATACATATATAT [XGTACX_site5892] | 9.16 |
| TTTTATATGTTATATACACACATATAAATAAATATA [CACACA_site7418] | 9.2 |

| Sequence | gcPBM binding intensity (ln) |
| --- | --- |
| AACAGGTCATAATTTACACACTATATATTTTATTAT [CACACA_site670] | 9.66 |
| TAACATATGGGACACACATGCAACTGTTATATGTCC [TGCATGCA_site959] | 9.47 |
| AGAAAACATATGTTTTGTACTTAAGAAAAAAAAAAA [XGTACX_site4231] | 8.97 |
| TGATTAATTTTTAAATGTACTTAAAAATATACTTAT [XGTACX_site2872] | 8.88 |
| ATCTATATTCATAATACACACATTCTGTAGCATTAT [CACACA_site7058] | 9.55 |
| TATATCATATAAAACCGTACATACATACTTAATTGT [XGTACX_site6822] | 9.49 |
| AGGAGGATAGTTCACAGTACCCAGGAAATCTGCGGA [XGTACX_site4928] | 9.16 |
| TATGCAATAAAATATACACACAATATACTTATATAT [CACACA_site7691] | 9.69 |
| TTTATTTTCCAAAGGGTGCACATAGTTAAAACGATA [GTGCAC_site9855] | 9.16 |
| ATAAATATACCAATCGGTACACATTTATACAAACAA [XGTACX_site7484] | 9.41 |
| AGAATAAATATGTGGTGTTATAGTATTAATGTTAAT [TGCATGCA_negctrl_site62] | 9.39 |
| AATAAATACACATACACACACGACGCTAGTATATGT [CACACA_site6627] | 9.87 |
| GCTATAAATATAATCACACATAAATATATAATATAT [CACACA_site5144] | 9.22 |
| GAATATTAAATATTATCACACACATAATTATTTCCA [CACACA_site8730] | 9.47 |
| ATATATATTTATAATCGTACGTACCTAACAATACAA [XGTACX_site4510] | 9.19 |
| AAATAAAAAAAAGCCTGTACATGTTCATAAATTTTT [XGTACX_site7925] | 9.2 |
| TCCTTATTTCATATTTTTAAATAATACAAAAAAAAA [CACACA_negctrl_site773] | 8.75 |
| TTCTATTTATATGTGGGTACTAATTTTTTTTCTTTT [XGTACX_site7104] | 9.58 |
| CTTAAATTAATTTGGGTGCATATATTTGTACACATT [GTGCAC_site9948] | 9.22 |

| Sequence | gcPBM binding intensity (ln) |
| --- | --- |
| TGAATAAAATATTATACACACATATGTATATAACAT [CACACA_site974] | 9.31 |
| TTAATTTTTTTTTAAACACACATTTTTTTATTTAAG [CACACA_site2738] | 9.17 |
| TATTAATTTTTTTTTTTTTTTTTTTTTTTTTTTTTT [CACACA_negctrl_site1329] | 9.27 |
| GTTATAAATAATAAATAAATAATCAAATGAAGAATG [CACACA_negctrl_site653] | 9.4 |
| TATATAAACCCACCTACACACACAACGTAAATGCAT [CACACA_site8702] | 9.89 |
| ATTATTATATTCAAATGTACTTAATAAACATTTTAA [XGTACX_site3023] | 8.88 |
| TTTATCTAAATATGTGTGCACTCGTTAATTTTTTTT | 9.45 |
| TAAAGAATATTATAAACACACACTTTATAAAGAATT [CACACA_site114] | 9.61 |
| TGTTGATTTATCCTGTGTACGGATATATATCTTTCA [XGTACX_site7826] | 9.27 |
| TATATAAAGAAACACACACACACCTTATAATTATTA [CACACA_site4062] | 10 |
| GTAATTATACATATTACACACTCTCTTGATCTTTTT [CACACA_site7756] | 9.51 |
| AGAAAAAAATAATCATCACACACGGAGAATGTCCAA [CACACA_site2314] | 9.72 |
| GAAAATAACTAAAATTGTACAAAGAAACATATATTT [XGTACX_site6484] | 9.35 |
| GATATTCATTATATATGTACATATATGTAATATATA [XGTACX_site2210] | 9.2 |
| TATATATATCTGTATACACACATACAAATATGTAAA [CACACA_site5950] | 9.39 |
| TATTAAAGCACCCATGCACACACACTAAGGAAAAGA [CACACA_site7961] | 10 |
| ATATATTTTTTTTTTTCACACATTAGGATTCATATA [CACACA_site5758] | 9.39 |
| ATCATATGTATGGTGGTGCATTATGCATGAATTTTA [GTGCAC_site9798] | 9.2 |
| TAATAATATATAAAAAGTACATAACAAGATATGAAA [XGTACX_site4921] | 9.45 |
